Assay [1] has as its target human IL-12 receptor (IL-12Rβ1 and IL-12Rβ2) on HEK-Blue IL-12 cells (human, UniProt P42701 24-662; Q99665 24-862). As to the kind of experiment: cell-based or functional assay.
Assay [2] deals with T1, human IL-12Rβ2, Acro (BLI analyte) (human, UniProt Q99665 24-622, limits assumed).
T1 sequence (looked up): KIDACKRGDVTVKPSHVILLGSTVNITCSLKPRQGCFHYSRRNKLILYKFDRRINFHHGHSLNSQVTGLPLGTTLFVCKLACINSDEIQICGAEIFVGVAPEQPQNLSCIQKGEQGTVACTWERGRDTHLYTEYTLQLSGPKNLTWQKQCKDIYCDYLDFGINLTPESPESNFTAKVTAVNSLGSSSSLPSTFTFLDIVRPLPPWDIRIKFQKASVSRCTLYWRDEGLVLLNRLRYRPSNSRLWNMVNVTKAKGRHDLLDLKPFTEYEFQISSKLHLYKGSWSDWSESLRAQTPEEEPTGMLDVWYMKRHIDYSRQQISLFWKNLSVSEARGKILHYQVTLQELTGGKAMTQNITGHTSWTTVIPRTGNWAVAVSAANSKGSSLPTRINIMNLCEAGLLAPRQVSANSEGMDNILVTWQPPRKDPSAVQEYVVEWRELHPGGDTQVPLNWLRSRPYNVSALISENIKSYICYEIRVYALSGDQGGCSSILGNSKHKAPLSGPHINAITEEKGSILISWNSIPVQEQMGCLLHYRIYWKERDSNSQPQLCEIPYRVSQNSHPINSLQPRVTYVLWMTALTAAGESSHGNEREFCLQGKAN
As to the kind of experiment: BLI (Octet), antibody on AHC tip.

This note sets out measurements from patent US20250019450A1 (DIAGONAL THERAPEUTICS, published 2025).

B1: DGL428 (bispecific antibody, human IgG1, lambda)
heavy 1: QVQLVESGGGLAQAGGSLRLSCAASGRTFSNDDMAWFRQAPGKEREFVAHIDRNAASTNYADSVKGRFTISRDNAKNTVYLQMTRLKPEDTAVYYCAADPDHFGTTWYQQYTYWGPGTQVTV[human IgG1 Fc with C220S L234A L235A G237A S354C T366W (EU numbers) omitted]
heavy 2: [about 120 residues omitted]ASTKGPSVFPLAPSSKSTSGGTAALGCLVKDYFPEPVTVSWNSGALTSGVHTFPAVLQSSGLYSLSSVVTVPSSSLGTQTYICNVNHKPSNTKVDKKVEPKSCDKTHTCPPCPAPEAAGAPSVFLFPPKPKDTLMISRTPEVTCVVVDVSHEDPEVKFNWYVDGVEVHNAKTKPREEQYNSTYRVVSVLTVLHQDWLNGKEYKCKVSNKALPAPIEKTISKAKGQPREPQVCTLPPSRDELTKNQVSLSCAVKGFYPSDIAVEWESNGQPENNYKTTPPVLDSDGSFFLVSKLTVDKSRWQQGNVFSCSVMHEALHNRFTQKSLSLSPG
light: not shown
notes: 97B1 x 85802_10D03A
For the molecule B1, in assay [1], the EC50 was 8.8e-10 M (implied) and the “Max Absorbance” value came out at 1.03. Also, binding in assay [2] was characterised by a dissociation constant (Kd) of 1.97 nM.

As usually defined, the EC50 is the concentration giving half of the maximal effect. As usually defined, the Kd is a measure of binding affinity in units of concentration. The low end stands for higher affinity, the high end for lower affinity.
